About 9,900 (2.8%) of roughly 350,000 compounds were called active. The shares of active, inactive and inconclusive entries below differ from those in the screen. The call rests on the fitted dose curve; in most records, active means well fitted activation curve with a large enough effect; inconclusive means small, poorly fitted or top-dose-only effect; inactive means no such curve, though single readings can be large or run the other way. Potencies of inconclusive entries are left out as doubtful fits.
Experiment: A quantitative high throughput screen for small molecules that induce DNA re-replication in MCF 10a normal breast cells. Further: nearly all actives have a fitted effect of over 50% in size.
Details: MCF 10A DNA re-replication, Hoechst nuclear intensity, 48 h; series mostly up to 46.1 µM
For `CCC(=O)Nc1nn(C)c2nc3c(C)cccc3cc12`, the Potency was active: 6.51 µM. With `COc1cccc(CN2CCN(Cc3cc4ccccc4o3)CC2CCO)c1` (stereo unspecified) the Potency was inconclusive [activator, partial curve, poor fit]. With `O=C(c1sc2ccccc2c1Cl)N1CCN(c2ncccn2)CC1` the Potency was inconclusive [activator, partial curve, poor fit]. For `Cc1ccc(-c2c[n+](CC(=O)Nc3ccc(C)cc3C)c3n2CCC3)cc1`, the Potency was inconclusive [activator, single point]. For `C[C@@](Cc1ccccc1)(NC(=O)CN)c1ccccc1`, the Potency was “inactive”. With `Fc1ccc(/C=N/Nc2nc3ccccc3[nH]2)cc1F` the Potency was “inactive”. With `CC(=O)Nc1cccc(-n2nnc(SCC(=O)c3ccccc3)n2)c1` the Potency was inconclusive [activator, single point]. For `Cc1ccc(OCCNC(=O)c2cc(C(=O)NCCOc3ccc(C)cc3)cc([N+](=O)[O-])c2)cc1`, the Potency was inconclusive [activator, partial curve, poor fit]. For `CCC1(c2ccc(Cl)cc2)NC(=O)N(CC(=O)NC2CCCC(C)C2C)C1=O` (stereo unspecified), the Potency was “inactive”. With `c1ccc(CN2CCN(c3cnc4ccccc4n3)CC2)cc1` the Potency was “inactive”. In the case of `O=C(Oc1ccc2ccccc2c1Cl)N1CCCCCC1`, the Potency was “inactive”. In the case of `Cc1cc(C(=O)CCC(=O)N(C)CC(=O)Nc2c(Cl)cccc2Cl)c(C)s1`, the Potency was “inactive”. For `COc1cc(C(=O)Nc2ccc(C)cc2)c2ccccc2n1`, the Potency was active: 5.8 µM. With `Cc1ccc(O)c(C(=O)CC(=O)c2ccc(Cl)cc2)c1` the Potency was inconclusive [activator, single point]. With `OC(CON=C1c2ccccc2-c2ccccc21)CN1CCNCC1` (stereo unspecified) the Potency was inconclusive [activator, single point]. In the case of `O=Cc1ccccc1OCc1nnsc1Cl`, the Potency was inconclusive [activator, partial curve, poor fit]. In the case of `Cc1c(Cl)ccc2c(C(=O)Nc3cc(C(C)(C)C)on3)cc(-c3ccccn3)nc12`, the Potency was inconclusive [activator, full curve, poor fit]. In the case of `CCCCNc1nc(CC)c2c(c1C#N)CCCC2`, the Potency was inconclusive [activator, single point]. For `COc1cc([N+](=O)[O-])cc(/C=N/NC(=O)C(C)Nc2ccccc2C)c1O` (stereo unspecified), the Potency was active: 1.64 µM. With `COc1ccc(/C=C/C(=O)c2ccccc2O)cc1` the Potency was “inactive”. With `COc1cccc(Oc2ccc(C(F)(F)F)cc2NC(=O)CN2C(=O)NC3(CCCC3)C2=O)c1` the Potency was active: 18.4 µM.

Source: PubChem BioAssay AID624296 (National Center for Advancing Translational Sciences (NCATS), 2012)
Potency means the concentration at half of the fitted maximal effect; tags describe the fitted curve by direction and shape.
